The list shows a part of the results.
Tests used:
Assay in all cases: glycan array binding signal (z-score within array); higher = stronger binding
Conditions in all cases: glycan notation: IUPAC condensed, linker removed
[1] = molecular target: Neu5Ac(a2-3)Gal(b1-4)GlcNAc(b1-3)[Neu5Ac(a2-3)Gal(b1-4)GlcNAc(b1-6)]GalNAc
Outline: (§1)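 Glycan array data were curated from 3228 arrays in the Consortium for Functional Glycomics database and kept only where the protein sequence was available. Glycan names were converted to IUPAC-condensed notation, and columns mapping to the same glycan were averaged. The binding signal is a within-array Z-score, averaged across arrays of the same protein sequence at different concentrations or buffers and across linkers. Negative Z-scores can be read as non-binding.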

[2] = molecular target: Neu5Ac(a2-3)Gal(b1-4)GlcNAc(b1-6)GalNAc
Outline: as §1

[3] = molecular target: Neu5Ac(a2-3)Gal(b1-4)GlcNAc(b1-6)[Gal(b1-3)]GalNAc
Outline: as §1

[4] = molecular target: Neu5Ac(a2-3)Gal(b1-4)GlcNAc(b1-6)[Neu5Ac(a2-3)Gal(b1-3)]GalNAc
Outline: as §1

[5] = molecular target: Neu5Ac(a2-3)Gal(b1-4)GlcNAc6S
Outline: as §1

[6] = molecular target: Neu5Ac(a2-3)Gal(b1-4)[Fuc(a1-3)]GlcNAc
Outline: as §1

[7] = molecular target: Neu5Ac(a2-3)Gal(b1-4)[Fuc(a1-3)]GlcNAc(b1-2)Man
Outline: as §1

[8] = molecular target: Neu5Ac(a2-3)Gal(b1-4)[Fuc(a1-3)]GlcNAc(b1-3)Gal
Outline: as §1

[9] = molecular target: Neu5Ac(a2-3)Gal(b1-4)[Fuc(a1-3)]GlcNAc(b1-3)Gal(b1-4)GlcNAc
Outline: as §1

[10] = molecular target: Neu5Ac(a2-3)Gal(b1-4)[Fuc(a1-3)]GlcNAc(b1-3)Gal(b1-4)[Fuc(a1-3)]GlcNAc(b1-3)Gal(b1-4)[Fuc(a1-3)]GlcNAc
Outline: as §1

[11] = molecular target: Neu5Ac(a2-3)Gal(b1-4)[Fuc(a1-3)]GlcNAc(b1-3)GalNAc
Outline: as §1

[12] = molecular target: Neu5Ac(a2-3)Gal(b1-4)[Fuc(a1-3)]GlcNAc(b1-6)[Gal(b1-3)]GalNAc
Outline: as §1

[13] = molecular target: Neu5Ac(a2-3)Gal(b1-4)[Fuc(a1-3)]GlcNAc(b1-6)[Neu5Ac(a2-3)Gal(b1-3)]GalNAc
Outline: as §1

[14] = molecular target: Neu5Ac(a2-3)Gal(b1-4)[Fuc(a1-3)]GlcNAc6S
Outline: as §1

[15] = molecular target: Neu5Ac(a2-3)Gal6S(b1-4)GlcNAc
Outline: as §1

[16] = molecular target: Neu5Ac(a2-3)Gal6S(b1-4)[Fuc(a1-3)]GlcNAc
Outline: as §1

Neu5Ac(a2-3)GalNAc = molecular target: Neu5Ac(a2-3)GalNAc
Outline: as §1

[17] = molecular target: Neu5Ac(a2-3)GalNAc(b1-4)GlcNAc
Outline: as §1

[18] = molecular target: Neu5Ac(a2-3)[GalNAc(b1-4)]Gal(b1-4)Glc
Outline: as §1

[19] = molecular target: Neu5Ac(a2-3)[GalNAc(b1-4)]Gal(b1-4)GlcNAc
Outline: as §1

[20] = molecular target: Neu5Ac(a2-3)[GalNAc(b1-4)]Gal(b1-4)GlcNAc(b1-3)GalNAc
Outline: as §1

[21] = molecular target: Neu5Ac(a2-3)[Neu5Ac(a2-6)]GalNAc
Outline: as §1

Neu5Ac(a2-6)Gal = molecular target: Neu5Ac(a2-6)Gal
Outline: as §1

[22] = molecular target: Neu5Ac(a2-6)Gal(b1-3)GlcNAc(b1-3)[Gal(b1-4)GlcNAc(b1-6)]Gal(b1-4)Glc
Outline: as §1

Neu5Ac(a2-6)Gal(b1-4)Glc = molecular target: Neu5Ac(a2-6)Gal(b1-4)Glc
Outline: as §1

[23] = molecular target: Neu5Ac(a2-6)Gal(b1-4)GlcNAc
Outline: as §1

[24] = molecular target: Neu5Ac(a2-6)Gal(b1-4)GlcNAc(b1-2)Man
Outline: as §1

[25] = molecular target: Neu5Ac(a2-6)Gal(b1-4)GlcNAc(b1-2)Man(a1-3)Man(b1-4)GlcNAc(b1-4)GlcNAc
Outline: as §1

[26] = molecular target: Neu5Ac(a2-6)Gal(b1-4)GlcNAc(b1-2)Man(a1-3)[Gal(b1-4)GlcNAc(b1-2)Man(a1-6)]Man(b1-4)GlcNAc(b1-4)GlcNAc
Outline: as §1

[27] = molecular target: Neu5Ac(a2-6)Gal(b1-4)GlcNAc(b1-2)Man(a1-3)[GlcNAc(b1-2)Man(a1-6)]Man(b1-4)GlcNAc(b1-4)GlcNAc
Outline: as §1

[28] = molecular target: Neu5Ac(a2-6)Gal(b1-4)GlcNAc(b1-2)Man(a1-3)[GlcNAc(b1-4)][Neu5Ac(a2-6)Gal(b1-4)GlcNAc(b1-2)Man(a1-6)]Man(b1-4)GlcNAc(b1-4)GlcNAc
Outline: as §1

B1: PVL (Psathyrella velutina), Q309D1_9AGAR (protein)
chain: MSVVVISQALPVPTRIPGVADLVGFGNGGVYIIRNSLLIQVVKVINNFGYDAGGWRVEKHVRLLADTTGDNQPDVVGFGENGVWISTNNGNNTFVDPPKMVLANFAYAAGGWRVEKHIRFMADLRKTGRADIVGFGDGGIYISRNNGGGQFAPAQLALNNFGYAQGWRLDRHLRFLADVTGDGLLDVVGFGENQVYIARNSGNGTFQPAQAVVNNFCIGAGGWTISAHPRVVADLTGDRKADILGFGVAGVYTSLNNGNGTFGAVNLVLKDFGVNSGWRVEKHVRCVSSLTNKKVGDIIGFGDAGVYVALNNGNGTFGPVKRVIDNFGYNQGWRVDKHPRFVVDLTGDGCADIVGFGENSVWACMNKGDGTFGPIMKLIDDMTVSKGWTLQKTVRYAANLYL
glycan array binding signal (z-score) [1]: 0.13
glycan array binding signal (z-score) [2]: -0.34
glycan array binding signal (z-score) [3]: -0.306
glycan array binding signal (z-score) [4]: -0.244
glycan array binding signal (z-score) [5]: 0.109
glycan array binding signal (z-score) [6]: -0.259
glycan array binding signal (z-score) [7]: -0.364
glycan array binding signal (z-score) [8]: -0.252
glycan array binding signal (z-score) [9]: -0.263
glycan array binding signal (z-score) [10]: -0.297
glycan array binding signal (z-score) [11]: -0.331
glycan array binding signal (z-score) [12]: -0.546
glycan array binding signal (z-score) [13]: -0.34
glycan array binding signal (z-score) [14]: -0.13
glycan array binding signal (z-score) [15]: -0.236
glycan array binding signal (z-score) [16]: -0.302
glycan array binding signal (z-score) (Neu5Ac(a2-3)GalNAc): -0.365
glycan array binding signal (z-score) [17]: -0.351
glycan array binding signal (z-score) [18]: -0.347
glycan array binding signal (z-score) [19]: -0.277
glycan array binding signal (z-score) [20]: -0.356
glycan array binding signal (z-score) [21]: -0.1
glycan array binding signal (z-score) (Neu5Ac(a2-6)Gal): -0.26
glycan array binding signal (z-score) [22]: -0.349
glycan array binding signal (z-score) (Neu5Ac(a2-6)Gal(b1-4)Glc): -0.355
glycan array binding signal (z-score) [23]: -0.396
glycan array binding signal (z-score) [24]: -0.354
glycan array binding signal (z-score) [25]: -0.355
glycan array binding signal (z-score) [26]: -0.362
glycan array binding signal (z-score) [27]: 0.537
glycan array binding signal (z-score) [28]: -0.344

Reference: the supplement of paper PMC8728848
